Test results: the RNAGym collection of RNA variant scans (doi:10.1093/nar/gkz1192)
Read counts are not given, so values of variants with three or more changes are uncertain.

B1: CPEB3 Ribozyme (parent)
chain: UAACAGGGGGCCACAGCAGAAGCGUUCACGUCGCAGCCCCUGUCAGAUUCUGGUGAAUCUGCGAAUUCUGCUGUAUAUCUC

Variants of: B1
Assay: self-cleavage, relative activity (ratio to wild type); higher = more cleavage; in vitro, sequencing
Outline: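 Relative activity was defined as the cleaved/total read fraction for a variant divided by the same fraction for the unmutated ribozyme. CPEB3 self-cleaving ribozyme libraries were made by rounds of error-prone PCR, barcoded, and transcribed in vitro with T7 RNA polymerase for 5 hours at 37°C, and cleavage ran through transcription plus a 15 min DNase I step before EDTA. Illumina sequencing of template-switched reverse transcripts gave the reads, and DNA sequencing mapped the barcodes. Averages come from three batches, using variants with at least 5 reads.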

**Q.** With UGACAGGGGGCCACAGCAGAAGCGCUCACGUCGCAGCCCCUGUCAGGUUCUGGUGAAUCUGCGAAUUCUGCAGUAUAUCUC [A2G U25C A47G U72A] as the variant, how does the self-cleavage read?
**A.** 0.07

**Q.** With UGACAGGGGGCCACAGCAGAAGCGCUCACGUCGCAGCCCCUGUCAGAUUAUGGUGAAACUGCGAAUUCUGCUGUAUAUCUC [A2G U25C C50A U58A] as the variant, how does the self-cleavage read?
**A.** 0.19

**Q.** For UGACAGGGGGCCACAGCAGAAGCGCUCACGUCGCAGCCCCCGUCGGAUUCUGGUGAACCUGCGAAUCCUGCUGUAUAUCUC [A2G U25C U41C A45G U58C U67C], which self-cleavage is on record?
**A.** 0.17

**Q.** Which self-cleavage does the source give for UGACAGGGGGCCACAGCAGAAGCGCUCACGUCGCAGCCCCCGUCAGAUUCAGGUGAGUCUGCGAAUUCUGCUGUGUAUCAC [A2G U25C U41C U51A A57G A75G U80A] here?
**A.** 0.01

**Q.** With UGACAGGGGGCCACAGCAGAAGCGCUCACGUCGCAGCCCCUGUCAGAUUCUGGUGAAUCUGCGAAUCCUGCUGUACAUCUC [A2G U25C U67C U76C] as the variant, how does the self-cleavage read?
**A.** 0.29

**Q.** Which self-cleavage does the source give for UGACAGGGGGCCACAGCAGAAGCGUACGCGUCGCAGCCCCUGUCAGAUUCUGGCGAAUCUGCGAAUUCUGCUGUAUAUCUC [A2G U26A A28G U54C] here?
**A.** 0.33

**Q.** Which self-cleavage does the source give for UGACAGGGGGCCACAGCAGAAGCGUACACGUCGCAGCCCCUGUCAGAUUCUGGUGAAUCUCCGAGUUCUGCUGUAUAUCUC [A2G U26A G61C A65G] here?
**A.** 0.14

**Q.** For UGACAGGGGGCCACAGCAGAAGCGUACACGUCGCAGCCCCUGUCAGAUUCUGGUGAAACUGCGGAUUCUGCUGUAUAUCUC [A2G U26A U58A A64G], which self-cleavage is on record?
**A.** 0.05

**Q.** Which self-cleavage does the source give for UGACAGGGGGCCACAGCAGAAGCGUACACGUCGCAGCCCCUGUCAGAUUCUGGUGAAUCUGCGAAUUCUGCUGUAUAUCCC [A2G U26A U80C] here?
**A.** 0.62

**Q.** Which self-cleavage does the source give for UGACAGGGGGCCACAGCAGAAGCGUCCACGUCGCGGCCCCUGCCAGAUUCUGGUGGAUCUGCGAAUUCUGCUGUAUAUCUC [A2G U26C A35G U43C A56G] here?
**A.** 1.02

**Q.** Which self-cleavage does the source give for UGACAGGGGGCCACAGCAGAAGCGUCCACGUCGCAGCCCCUGUCAGAUUCUGGUGAGCCUGCGAACUCUGCUGUAUAUCUC [A2G U26C A57G U58C U66C] here?
**A.** 0

**Q.** With UGACAGGGGGCCACAGCAGAAGCGUCCACGACGCAGCCCCCGUCAGAUUCAGGUGAAUCUGCGAAUCCUGCUGUAUUUCUC [A2G U26C U31A U41C U51A U67C A77U] as the variant, how does the self-cleavage read?
**A.** 0.13

**Q.** For UGACAGGGGGCCACAGCAGAAGCGUCCACGUCGCAGCCCCUGUCAGAUACUGGUGAAUCUGCGAAUUCCGCUGUAUAACUC [A2G U26C U49A U69C U78A], which self-cleavage is on record?
**A.** 0.06

**Q.** With UGACAGGGGGCCACAGCAGAAGCGUCCACGUCGCAGCCCCUGUCAGAUUCUGGUGAAUCUGCGAAUUCCGCUGUAUAUCUC [A2G U26C U69C] as the variant, how does the self-cleavage read?
**A.** 0.31

**Q.** For UGACAGGGGGCCACAGCAGAAGCGUUCACGCCGCAGCCUCUGUCAGAUUCUGGUGAAUCUGCGAAUUCUGCAGUAUAUCCC [A2G U31C C39U U72A U80C], which self-cleavage is on record?
**A.** 0.44

**Q.** For UGACAGGGGGCCACAGCAGAAGCGUUCACGCCGCAACCCCUGUCUGAAUCUGGUGAAUCUGCGAAUUCUGCUGUGUAUCUC [A2G U31C G36A A45U U48A A75G], which self-cleavage is on record?
**A.** 0.06

**Q.** With UGACAGGGGGCCACAGCAGAAGCGUUCACGCCGCAGCCCCUGUCAUAUUCUGGCGAAUCUGCGAAUUCUGCUGUAUAUCUC [A2G U31C G46U U54C] as the variant, how does the self-cleavage read?
**A.** 0.22

**Q.** With UGACAGGGGGCCACAGCAGAAGCGUUCACGCCGCAGCCCCCGUCUGAUUCUGGUGAAUCUGCGAACUCUGCUGUAUAUCUC [A2G U31C U41C A45U U66C] as the variant, how does the self-cleavage read?
**A.** 0.23

**Q.** With UGACAGGGGGCCACAGCAGAAGCGUUCACGCCGCAGCCCCUGUCAGAUUCUGGUGAAUCUGCGAAUUCUGCUGAAUAUCUC [A2G U31C U74A] as the variant, how does the self-cleavage read?
**A.** 0.67

**Q.** For UGACAGGGGGCCACAGCAGAAGCGUUCACGCCGCAGCCCCUGUCAGAUUCUGGUGAAUCUGCGAAUUCUGCUGUAUACCUC [A2G U31C U78C], which self-cleavage is on record?
**A.** 0.61

**Q.** For UGACAGGGGGCCACAGCAGAAGCGUUCACGUCGCAGCCCCCGUCAGAUUCUGGUGAAUCUGCGAAUCCUGCAGUAUAUCUC [A2G U41C U67C U72A], which self-cleavage is on record?
**A.** 0.11

**Q.** For UGACAGGGGGCCACAGCAGAAGCGUUCACGUCGCAGCCCCUGACGGAUUCUGGUGAAUCUGCGAAUUCUGCUGUAUAUCUC [A2G U43A A45G], which self-cleavage is on record?
**A.** 0.87

**Q.** Which self-cleavage does the source give for UGACAGGGGGCCACAGCAGAAGCGUUCACGUCGCAGCCCCUGCCAGAUUCUGGUGAAUCUGCGGAUUCUGCUGUAUAUCUC [A2G U43C A64G] here?
**A.** 0.48

**Q.** Which self-cleavage does the source give for UGACAGGGGGCCACAGCAGAAGCGUUCACGUCGCAGCCCCUGCCAGAUUCUGGUGAAACUGCGAAUUCUGCUGUAUAUCCC [A2G U43C U58A U80C] here?
**A.** 0.11

**Q.** With UGACAGGGGGCCACAGCAGAAGCGUUCACGUCGCAGCCCCUGCCAGAUUCUGGUGAAUCAGCGAAUUCUGCCGUAUAUCUC [A2G U43C U60A U72C] as the variant, how does the self-cleavage read?
**A.** 0.33

**Q.** For UGACAGGGGGCCACAGCAGAAGCGUUCACGUCGCAGCCCCUGCCAGAUUCUGGUGAAUCUGCGAAUCCUGCUGUAUAUCUC [A2G U43C U67C], which self-cleavage is on record?
**A.** 0.19

**Q.** Which self-cleavage does the source give for UGACAGGGGGCCACAGCAGAAGCGUUCACGUCGCAGCCCCUGUCAGAUCCUGGCGAAUCUGCGAACUCUGCUGUAUAUCAC [A2G U49C U54C U66C U80A] here?
**A.** 0.06

**Q.** With UGACAGGGGGCCACAGCAGAAGCGUUCACGUCGCAGCCCCUGUCAGAUUCCGGUGAAUCUGCGAAUUCUACUGUAUAUCUC [A2G U51C G70A] as the variant, how does the self-cleavage read?
**A.** 0.25

**Q.** For UGACAGGGGGCCACAGCAGAAGCGUUCACGUCGCAGCCCCUGUCAGAUUCUGGAGAAUCUGCGAAUUCUGCUGUAUAUUUC [A2G U54A C79U], which self-cleavage is on record?
**A.** 1

**Q.** For UGACAGGGGGCCACAGCAGAAGCGUUCACGUCGCAGCCCCUGUCAGAUUCUGGCGUAUCUGCGAAUUCUGCUGUAUAUCCC [A2G U54C A56U U80C], which self-cleavage is on record?
**A.** 0.17

**Q.** For UGACAGGGGGCCACAGCAGAAGCGUUCACGUCGCAGCCCCUGUCAGAUUCUGGUGAAUCUGCGAAUCCGGCUGUAUAUCUC [A2G U67C U69G], which self-cleavage is on record?
**A.** 0.12

**Q.** Which self-cleavage does the source give for UGACAGGGGGCCACAGCAGAAGCGUUCACGUCGCAGCCCCUGUCAGAUUCUGGUGAAUCUGCGAAUUCAGCAGUAUUUCUC [A2G U69A U72A A77U] here?
**A.** 0.1

**Q.** With UGACAGGGGGCCACAGCAGAAGCGUUCACGUCGCAGCCCCUGUCAGAUUCUGGUGAAUCUGCGAAUUCUGCUGUAAGUCUC [A2G U76A A77G] as the variant, how does the self-cleavage read?
**A.** 0.63

**Q.** Which self-cleavage does the source give for UUGCAGGGGGCCGCAGCAGAAGCGCUCACGUCGUAGCCCCUGUCAGAUUCUGGUGAAUCUGCGAAUUCUGCUGUAUAUCUC [A2U A3G A13G U25C C34U] here?
**A.** 0.41
